Out of some 210,000 compounds screened, about 5,900 (2.8%) were called active. Inconclusive means that the source gave no clear call. Such entries were picked first, then a sample of the others. Calls come from the whole dose curve; as a rule, active = well fitted activation curve with a large enough effect; inconclusive = small, poorly fitted or top-dose-only effect; inactive = no such curve, though single readings can be large or run the other way. A potency beside an inconclusive call is a rough fit, not a confirmed value.
experiment: qHTS Assay for Enhancers of SMN2 Splice Variant Expression; settings: HEK293 SMN2-luciferase splicing reporter, luminescence, 30-36 h; activity change, positive = activation: at 46.1 µM (top of the series); note: nearly all actives have a fitted effect of over 55% in size; for activity change, positive = activation: % of control where 0% means no effect
How it was run: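 qHTS luciferase splicing reporter: luminescence rises when SMN2 exon 7 is included in transfected HEK293 cells. Compound exposure lasted 30-36 h at 37C, with 4.5 mM final sodium butyrate as control, followed by a ONE-Glo read.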
Potency is the fitted concentration of half-maximal effect; tags give direction and shape of the fitted curve.

Row | Structure (SMILES) | Potency | activity change, positive = activation
1 | c1ccc(COc2ccc(-c3csnn3)cc2)cc1 | inconclusive: 1.41 µM [activator, full curve] | 
2 | COC(=O)c1ccc(C(=O)NC(=S)Nc2ccc3nc(SC)sc3c2)cc1 | inconclusive: 7.08 µM [activator, full curve, poor fit] | 
3 | Clc1c(CSc2nc3ccccc3o2)nc2sccn12 | active: 10 µM | 
4 | CC(C)c1nc(N(C)S(C)(=O)=O)nc(-c2ccc(F)cc2)c1/C=C/C(O)CC(O)CC(=O)O (centres undefined) |  | inactive: -5.36%
5 | CCc1ccccc1NC(=S)N1N=CCC1c1ccccc1 (centres undefined) |  | inactive: -1.94%
6 | Cc1ccc(C(=O)C(C(=O)/C=C/c2ccccc2)=C2SCCCS2)cc1 |  | inactive: -81%
7 | O=C(Nc1nc(-c2cccs2)cs1)c1ccco1 | active: 12.6 µM | 
8 | CCOc1ccccc1-c1noc(CSc2nnc(-c3ccccc3)n2-c2cccc(C)c2)n1 |  | inactive: 3.89%
9 | O=C(Nc1ccccc1)Nc1ccccc1C(=O)NCc1ccccc1 |  | inactive: 1.32%
10 | C[C@H]1CC[C@@H]2[C@@H](C)[C@H]3[C@H](C[C@H]4[C@@H]5CC=C6C[C@@H](O[C@]7(O[C@H]8O[C@@H](C)[C@@H](O)[C@@H](O)[C@@H]8O)C[C@@H](O[C@@H]8O[C@H](CO)[C@@H](O)[C@H](O)[C@@H]8O)[C@@H](O)[C@H](CO)O7)CC[C@]6(C)[C@H]5CC[C@@]34C)N2C1 | inconclusive: 14.1 µM [activator, single point] | 
11 | O=C(CCC1N=C2c3ccccc3N=C(SCC(=O)Nc3ccccc3F)N2C1=O)NCc1ccco1 (centres undefined) |  | inactive: 14%
12 | Nc1ccccc1SC1CC(=O)N(Cc2ccccc2)C1=O (centres undefined) |  | inactive: -13.9%
13 | C#CCn1c(S(=O)(=O)Cc2ccc(C)cc2)nc(-c2ccccc2)c1-c1ccccc1 |  | inactive: 30.3%
14 | c1ccc(Oc2cc(-c3ccccc3)ncn2)cc1 | inconclusive: 35.5 µM [activator, single point] | 
15 | Cc1noc(C)c1CSc1nc2[nH]ncc2c(=O)n1-c1ccccc1 | inconclusive: 6.31 µM [activator, partial curve, poor fit] | 
16 | CSCC(=O)Nc1nc(-c2ccc3c(c2)OCCO3)cs1 | active: 11.2 µM | 
17 | CC1=NN(c2ccccc2)C(=O)/C1=C\c1cn(C)c2ccccc12 |  | inactive: -2.93%
18 | CCn1nccc1C(=O)Nc1cc(Cl)cc(Cl)c1 | inconclusive: 35.5 µM [activator, single point] | 
19 | COCCn1c(-c2cccs2)csc1=Nc1cccnc1 |  | inactive: -50%
20 | Cc1ccc(OC(=O)c2oc3ccc(F)cc3c2C)c(C)c1 |  | inactive: 16.9%
21 | Cc1ccc(-c2nn(-c3ccccc3)cc2C=O)o1 | active: 10 µM | 
22 | Cc1ncsc1C(=O)Nc1nc2c(s1)CCCC2 | active: 11.2 µM | 
23 | COC(=O)c1c(NC(C)=O)sc2c1CCCCC2 | inconclusive: 5.01 µM [activator, single point] | 
24 | COCCn1c(C)cc(C2=NNC(=Nc3ccccc3)SC2)c1C | inconclusive: 35.5 µM [activator, single point] | 
25 | Cc1cnc(NC(=O)CSc2nnc(-c3ccccc3)o2)s1 | active: 10 µM | 

Row | Structure (SMILES) | Potency | activity change, positive = activation
26 | O=C(Nc1nc2c(ccc3ccccc32)s1)c1cc([N+](=O)[O-])ccc1N1CCOCC1 | inconclusive: 15.8 µM [activator, single point] | 
27 | Cc1c(NC(=O)C(C)N2CC(C)OC(C)C2)c(=O)n(-c2ccccc2)n1C (centres undefined) | inconclusive: 0.501 µM [activator, full curve, poor fit] | 
28 | Cc1ccc(N2CCN(/N=C/c3ccncc3)CC2)cc1 |  | inactive: -31.8%
29 | COc1cc(C(=O)Nc2cccc3ncccc23)cc(OC)c1OC | inconclusive: 0.0032 µM [activator, full curve, poor fit] | 
30 | CCCc1nc2oc3c(NCC4CCCO4)ncnc3c2c2c1COC(C)(C)C2 (centres undefined) |  | inactive: -13.5%
31 | COc1ccc(NC(=O)c2coc(=O)c3ccccc23)cc1OC |  | inconclusive: 40.8% [activator]
32 | COc1ncc2nc(-c3cc(F)cc(F)c3)c(=O)n(Cc3cccs3)c2n1 |  | inactive: -8.01%
33 | OCCNCC(O)Cn1ccc2ccccc21 (centres undefined) | inconclusive: 0.0447 µM [activator, full curve, poor fit] | 
34 | O=C(CCN1C(=O)c2ccccc2C1=O)N1CCOCC1 | inconclusive: 1.58 µM [activator, full curve, poor fit] | 
35 | O=C(CN1C(=O)NC2(CCCC2)C1=O)Nc1ccc(F)c(F)c1F | inconclusive: 8.91 µM [activator, partial curve] | 
36 | O/N=C1/CC/C(=N\O)c2nn(-c3ccccc3)nc21 | inconclusive: 14.1 µM [activator, partial curve, poor fit] | 
37 | Cc1nnc(-c2cnn(C)c2N)n1Cc1ccccc1F | inconclusive: 3.16 µM [activator, single point] | 
38 | Cc1cc(C)c2c(CN3CCN(C)CC3)cc(=O)oc2c1 | inconclusive: 35.5 µM [activator, partial curve, poor fit] | 
39 | Cc1ccc(-c2nn(C)c(=O)c3ccccc23)cc1S(=O)(=O)NCCO | inconclusive: 22.4 µM [activator, partial curve] | 
40 | CC(=O)Nc1cccc(NC(=O)c2cc3ccccc3o2)c1 | active: 11.2 µM | 
41 | Cc1cccc(/C(N)=N/OC(=O)c2cccs2)c1 | inconclusive: 35.5 µM [activator, single point] | 
42 | Cc1ccc(-c2cn3cc([N+](=O)[O-])ccc3n2)cc1 | inconclusive: 0.355 µM [activator, full curve, poor fit] | 
43 | Cc1cc(Oc2ccccc2)nc(OCC#N)n1 | inconclusive: 5.62 µM [activator, single point] | 
44 | COc1ccc(-c2ccc(SCC(=O)NCc3ccco3)nn2)cc1 |  | inactive: 7.02%
45 | CC1CCCN(Cc2cccc(Oc3ccccc3)c2)C1 (centres undefined) |  | inactive: -8.54%
46 | O=C1CN(C(=O)COC(=O)c2cccc(OCc3ccccc3)c2)c2ccccc2N1 | inconclusive: 0.891 µM [activator, full curve, poor fit] | 
47 | N#C/C(=C\c1ccc(O)c(O)c1)C(=O)NCCCc1ccccc1 | inactive | 
48 | O=C(/C=C/c1ccco1)N1CCc2ccccc21 | active: 10 µM | 
49 | Cc1ccc(NC(=O)c2ccccc2)cc1 | active: 14.1 µM | 

— PubChem BioAssay AID1458 (National Center for Advancing Translational Sciences (NCATS), 2008)
